± gives the standard deviation. Over roughly 3,700 sequences, “pre-steady-state target cleavage rate” has its median near 0.02; the highest 2% begin near 0.23. This is a selection; strong and weak results do not stand in their true shares. Where only a bound is given, the exact number is not on record here.

The test system of this assay is MILI (PIWIL2) piRISC loaded with Kctd7 piRNA (26 nt). Briefly: pre-steady-state target cleavage rate (min^-1); MIWI and MILI are mouse PIWI proteins and EfPiwi is from a freshwater sponge; tags in brackets are library labels; higher = faster piRNA-guided slicing of the target. The settings on record: guide: Kctd7 piRNA 5'p-UGUUAAUCUCUCAGAGAAGGUGACAG; auxiliary factor: 500 nM mouse GTSF1. Summed up: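 The pre-steady-state cleavage rate was obtained by Cleave-'n-Seq with a burst-and-steady-state fit. A transcribed, DNA-blocked target RNA library (0.1 nM) was mixed with 1 nM active affinity-purified piRISC carrying one synthetic guide, with or without 500 nM GTSF1 partner protein, in HEPES–potassium acetate buffer at 33 °C for 0–8 or 0–960 min. Uncleaved targets were sequenced and normalised to depth and to weakly complementary targets, with three trials pooled and k3 capped at 0.0001 min^-1.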
For UAGUGACAGUCCUUUCUCUGAGAGAUUAACA, the “pre-steady-state target cleavage rate” value was 0.124 ± 0.014.
The result for UAGUGACUCACCUUCUCUGUCAGAUUAACA reads 0.00928 ± 0.0028; that for UAGUGACUCACCUUCUCUGAGAUGAUUAACA, 0.0709 ± 0.0067; that for UAGUGACAGUGGAUCUCUGACUGAUUAACA, below 0.0001.
The result for UAGUGUGUCACGAACUCUGAGAGAUUAACA reads 0.0905 ± 0.0059; that for UAGUGACUCACCUUCUGAGAGAGAUUUUGA, 0.00731 ± 0.0036; that for UAGUGACAGUCCAUCUCUGAGAGAUUAACA, 0.027 ± 0.0065.
For the sequence UAGUCUGUGACCUUCUCUGAGAGAUUAACA, the “pre-steady-state target cleavage rate” value is 0.181 ± 0.0086.
The value for UAGUGACUCACCAUCUCUGACAGAUUAACA was 0.026 ± 0.0045.
The value for UAGUCUGUCACCUUCGCUGAGAGAUUAACA was 0.205 ± 0.026; that for UAGUGACACACCUUCACUGACAGAUUAACA was 0.0777 ± 0.021.
Consider UAGUGAGUGACCUUCUCUGACAGAUUAACA, for which the “pre-steady-state target cleavage rate” value came out at 0.0284 ± 0.0068.
The value for UAGUGACUCACCUUCUCUGACAGAUUAACA was 0.0785 ± 0.013; that for UAGUGUGUCACCUUCUCUGAGGAUUAACA was 0.071 ± 0.024; that for UAGUGAGUCUCCUUCUCUGAGAGAUUAUCA was 0.0134 ± 0.0057.
Take UAGUCUGUCACCUUUCUGAGAGAUUAACA: the “pre-steady-state target cleavage rate” value stood at 0.0704 ± 0.013.
For the sequence UAGUGACAGACCUUCUCUUAGAGAUUAACA, the “pre-steady-state target cleavage rate” value is 0.0426 ± 0.0085.
The value for UAGUGACACACGUUCUCUCAGAGAUUAACA was 0.037 ± 0.008; that for UAGUGACAGUGGGUCUCUGAGAGAUUAACA was 0.00431 ± 0.0013.
Take UAGUGACAGAGCUUCUCUGAGAGAUUAACA: the “pre-steady-state target cleavage rate” value is 0.0453 ± 0.0081.
As for UAGUGACUCACCUUCUCAGAGAGAUUUACA, the “pre-steady-state target cleavage rate” value turned out to be 0.0709 ± 0.014.
The value for UAGUGACACACCUUGUCUGAGAGAUAAACA was 0.0203 ± 0.0084; that for UAGUGUGUCACCUAGUCUGAGAGAUUAACA was 0.0886 ± 0.0072.
The value for UAGUGACAGUCGUUCUCUGAGAGAUUAAGA was 0.0077 ± 0.0032; that for UAGUGACAGUGGUUCUCUGAAGAUUAACA was below 0.0001.
In the case of UAGUGAGUCACCUUCUCUCUGAGAUUAACA, the “pre-steady-state target cleavage rate” value is 0.0118 ± 0.0043.
The value for UAGUGACAGUCCUUCUCAGUGAGAUUAACA was 0.00428 ± 0.0026; that for UAGUGACUCACCUUCUCUGAGAGAUCUAACA was 0.208 ± 0.049.
The result for UAGUGACUGAGCUUCUCUGAGAGAUUAACA reads 0.091 ± 0.0066.
The value for UAGUGACAGUGCUUCUUUGAGAGAUUAACA was 0.0343 ± 0.0055.
UAGUGACUCACCUUCUAUGAGAGAUUAACA: the “pre-steady-state target cleavage rate” value was determined as 0.0743 ± 0.012.
As for UAGUGACUCACCUUCUCUGAGAGAUAAAGA, the “pre-steady-state target cleavage rate” value is 0.00864 ± 0.0049.
On to UAGUGUGUCACCAACUCUGAGAGAUUAACA, for which the “pre-steady-state target cleavage rate” value stood at 0.161 ± 0.011.
The result for UAGUGACAGUCCUUCUCUGAGAGGAUUAACA reads 0.0433 ± 0.0062; that for UAGUGAGUCACGUUCUCUGAGAGUUUAACA, 0.0729 ± 0.013; that for UAGUCUGUCACCUUACUCUGAGAGAUUAACA, 0.176 ± 0.011.
The value for UAGUGACAGUGGAAGAGACAGUGAUUUACA was below 0.0001; that for UAGUCUGUCACCUUCUCUGAGUAGAUUAACA was 0.00795 ± 0.0031; that for UAGUGACACACCUUCUCUGAAGAGAUUAACA was 0.00548 ± 0.0031.
The value for UAGUGACAGUGGUUCUGCUGAGAGAUUAACA was below 0.0001; that for UAGUCUCUCACCUUCUCUGAGAGAUUUACA was 0.0472 ± 0.013; that for UAGUGACAGUGGAUCUCUCAGAGUUUAACA was below 0.0001.
For UAGUGACAGUCCCUCUCUGAGAGAUUAACA, the “pre-steady-state target cleavage rate” value was determined as 0.0482 ± 0.0093.
The value for UAGUGAGUCACGUUCUCUGAGAGAUUAACA was 0.161 ± 0.019; that for UAGUGAGUCACCUACUCUGAGAGAUUAUCA was 0.104 ± 0.028.
For UAGUGAGUCUCCUUCUCUGAGAGAUUAACA, the “pre-steady-state target cleavage rate” value was 0.136 ± 0.017.
The result for UAGUGACUCACCUUCUCUGAGAGAUUAAUCA reads 0.14 ± 0.028.
For UAGUGAGUCACCUUCUCUGAGAGAUAUUCA, the “pre-steady-state target cleavage rate” value turned out to be 0.0659 ± 0.026.
The value for UAGUGACAGUCCUACUCUGAGAGAUUAUCA was 0.00536 ± 0.0017.
The value for UAGUCUGACACCUUCUCUGAGAGUUUAACA was 0.109 ± 0.016.
The result for UAGUGUGUCACCUUCUCUGAGACUUUAACA reads 0.0999 ± 0.028; that for UAGUGACACACCUUCUCACAGAGAUUAACA, 0.0124 ± 0.0065; that for UAGUGACAGUCCUUAUCUGAGAGAUUAACA, 0.0438 ± 0.0075.
As to UAGUGAGUCAGCCUUCUCUGAGAGAUUAACA, the “pre-steady-state target cleavage rate” value worked out at 0.0842 ± 0.016.
The result for UAGUCUGUCACCUUCUCUGAGGAGAUUAACA reads 0.0158 ± 0.0053; that for UAGUCUGUCACGUUCUCAGAGAGAUUAACA, 0.102 ± 0.0078.
In the case of UAGUGACUCUGCUUCUCUGAGAGAUUAUGA, the “pre-steady-state target cleavage rate” value amounted to 0.0044 ± 0.0029.
The result for UAGUGAGUCACCUUCUCUCAGACAUUAACA reads 0.0331 ± 0.011; that for UAGUGACAGUCCUUCUCUGAGAGUAUUAACA, 0.0569 ± 0.0088; that for UAGUCUGUCACGAUCUCUGAGAGAUUAAGA, 0.025 ± 0.005.
For UAGUGUGUCAGCAUCUCUGAGAGAUUAACA, the “pre-steady-state target cleavage rate” value turned out to be 0.106 ± 0.01.
For the sequence UAGUGAGUCACCUUGUCAGAGAGAUUAACA, the “pre-steady-state target cleavage rate” value was 0.0464 ± 0.0079.
The result for UAGUGACAGUGCUUCUCUGAGAGAUUCACA reads 0.00539 ± 0.004; that for UAGUGACACACCUUCUCUGAGAGAUUCACA, 0.258 ± 0.057.
The value for UAGUGACUCACUUCUCUGAGAGAUUAACA was 0.0928 ± 0.0091; that for UAGUGACUCACCUUCUCUGAUGAGAUUAACA was 0.00488 ± 0.0046.
In the case of UAGUCUGUCACCUUCUCUGAGAGAUAUAACA, the “pre-steady-state target cleavage rate” value was found to be 0.235 ± 0.03.
With UAGUCUGUCACCUUCUUGAGAGAUUAACA, the “pre-steady-state target cleavage rate” value is 0.07 ± 0.023.
Take UAGUGACAGUCCAUGUCUGAGAGAUUAACA: the “pre-steady-state target cleavage rate” value was determined as 0.0217 ± 0.0077.
The value for UAGUGACACACCUUCUACUGAGAGAUUAACA was 0.00808 ± 0.0048; that for UAGUGUGUCACCUUCAGUGAGAGAUAUUGA was 0.00442 ± 0.0042.
The value for UAGUGACUCACCUACUCUGAGAGAUUAUCA was 0.121 ± 0.027; that for UAGUGAGUCACCUUCUCUGAGAGAUAAUCA was 0.0322 ± 0.015.
In the case of UAGUCUGUCACCUACACUGAGAGAUUAACA, the “pre-steady-state target cleavage rate” value is 0.114 ± 0.0093.
The result for UAGUGACAGUCCUUCACUGACAGAUUAACA reads 0.0159 ± 0.0049.
The value for UAGUGAGUCACCUUCUCAGAGAGAUUUUGA was 0.0646 ± 0.027; that for UAGUCUGUCACCUUCUCUGACACAUUAACA was 0.00428 ± 0.0031.
The value for UAGUGACAGUGGAAGAGACAAGAUUAACA was below 0.0001.
Consider UAGUGACAUACCUUCUCUGAGAGAUUAACA, for which the “pre-steady-state target cleavage rate” value was 0.0484 ± 0.0087.
Take UAGUGACUCACCUACUGUGAGAGAUUAACA: the “pre-steady-state target cleavage rate” value came to 0.086 ± 0.0083.
On to UAGUGUGACACCUUCUCUGAGAGAUUAAGA, for which the “pre-steady-state target cleavage rate” value amounted to 0.0535 ± 0.022.
The result for UAGUGAGUGACGUUCUCUGAGAGAUUAACA reads 0.112 ± 0.009.
For the sequence “UAGUCUGUCACCUUCUCUGAGAGAUUAACC [g2:g26:cont:t1C]”, the “pre-steady-state target cleavage rate” value came out at 0.173 ± 0.013.
UAGUGUGUCACUUCUCUGAGAGAUUAACA: the “pre-steady-state target cleavage rate” value was determined as 0.115 ± 0.011.
The result for UAGUGACUCACCUUCUCUGAGACGAUUAACA reads 0.0396 ± 0.012; that for UAGUCUGUCUCCUUCUCUGAGAGUUUAACA, 0.154 ± 0.025; that for UAGUGACUCACCUUCUCUGAGAGAUGAACA, 0.0895 ± 0.018.
The result for UAGUGUGUCACCUUGACUGAGAGAUUAACA reads 0.059 ± 0.009; that for UAGUGACAGACCUUCUCUCAGAGUUUAACA, 0.0105 ± 0.0056; that for UAGUCUAGUCACCUUCUCUGAGAGAUUAACA, 0.233 ± 0.017.
As to UAGUGACAGUGCUUCUGAGAGAGAUUAACA, the “pre-steady-state target cleavage rate” value amounted to 0.00504 ± 0.0018.
The value for UAGUGACAGUCCUUCUGUGAGAGAUAAACA was 0.00321 ± 0.0026.

(Values after the supplement of paper PMC10338343.)
